Measured values as given in PubChem BioAssay AID1347044 (National Center for Advancing Translational Sciences (NCATS), 2019).
The list shows a part of the results. These are further read-outs of the screen, such as a control signal, another cell line or another target. No call is given for them. The list favours compounds with an active or inconclusive main result. The note in brackets gives the kind of curve behind each potency; many fits are weak.

test: Natriuretic polypeptide receptor (hNpr1) antagonism - Confirmation; details: HEK293 hNpr1 cGMP GloSensor luminescence, ANP-stimulated; measured here: HEK-hNpr1 cytotoxicity, CellTiter-Glo; also: nearly all actives have a fitted effect of over 70% in size
Procedure, shortened: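 Compound (30 min, room temperature) preceded stimulation with hNppA peptide at 0.1 nM final for 20 min. Cells were HEK293 carrying hNpr1 plus GloSensor pGS-40F cGMP biosensor, pre-equilibrated 2 h with 2% substrate; cGMP was followed as luminescence pre- and post-agonist.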
Tags tell the direction and shape of the fitted curve.

Row | Structure (SMILES) | CC50
1 | Cc1cccc2nc(C(=O)N3CCCC(c4[nH]ncc4-c4ccccc4)C3)cn12 (configuration not stated) | 12.2 µM [falling, full curve]
2 | Cc1ccccc1SC1CCN(c2cc(C3CC(O)C3)ncn2)CC1 (configuration not stated) | 15.3 µM [falling, partial curve]
3 | O=C(NCc1nnc2cc(-c3nc(C4CC4)no3)ccn12)c1ccc(F)cc1Cl | 17.2 µM [falling, partial curve]
4 | O=C1NCN(Cc2ccc(Cl)cc2)C12CCN(Cc1ccccc1)CC2 | 17.2 µM [falling, partial curve]
5 | O=C(Nc1cccnc1)c1nc2c(o1)CCN(Cc1ccc(F)cc1F)CC2 | 31.4 µM [falling, partial curve]
6 | O=C(c1ccccc1Cl)N1CCN(c2cc(-c3ccc(Cl)cc3)[nH]n2)CC1 | 17.2 µM [falling, partial curve]
7 | O=C(c1cc(F)ccc1F)N1CCCC(n2cc(-c3nc(-c4ccccc4)no3)nn2)C1 (configuration not stated) | 21.7 µM [falling, partial curve]
8 | O=C(c1csc(N2CCN(c3ccccc3)CC2)n1)N1CCCCCC1 | 24.3 µM [falling, partial curve]
9 | O=C1COc2ccc(OCc3ccc(F)cc3)nc2CN1CCOc1ccccc1 | 35.3 µM [falling, partial curve]
10 | COc1ccc2ccc(OCc3nc(C(=O)N(C)Cc4cc(C)no4)co3)cc2c1 | 38.5 µM [falling, single point]
11 | CCOc1ccc(C(=O)N2CCCN(c3cc(-c4ccc(Cl)cc4)[nH]n3)CC2)cc1 | 19.3 µM [falling, partial curve]
12 | O=C(CCC1CCN(S(=O)(=O)c2ccc(F)cc2)CC1)NCc1nc2ccccc2[nH]1 | 21.7 µM [falling, partial curve]
13 | O=C(CCc1nc2ccccc2s1)N1CCC(Cc2noc(-c3ccc(F)cc3)n2)C1 (configuration not stated) | 21.7 µM [falling, partial curve]
14 | F[C@@H]1CN(Cc2ccc(C(F)(F)F)cc2)C[C@@H]1OCc1nc2ccccc2[nH]1 | 35.3 µM [falling, partial curve]
15 | O=C(Cc1ccc(F)cc1)N1CCC(Cc2nc(-c3ccc(F)cc3)no2)CC1 | 21.7 µM [falling, partial curve]
16 | Cc1nn(Cc2ccccc2)c(C)c1[C@@H]1C=C[C@@H](NC(=O)c2ccc3c(c2)OCO3)C1 | 39.6 µM [falling, partial curve]
17 | O=C(Cc1c[nH]c2ncc(-c3ccc(Oc4ccccc4)cc3)cc12)N1CCOCC1 | 31.4 µM [falling, partial curve]
